According to US12484583B2 (priority 2019, dated 2025):

Key:
Fusarium culmorum [1] = format: in vivo; conditions: Corn seed; imidacloprid full label; 14 days
Fusarium graminerum = format: cell-based
Rhizoctonia = conditions: in vivo, Abamectin full label (18 ppm), corn seeds
Fusarium culmorum [2] = conditions: in vivo, Abamectin full label (18 ppm), corn seeds
Trichoderma hazarum = conditions: in vivo, Abamectin full label (18 ppm), corn seeds
Aspergillus sp = conditions: in vivo, Abamectin full label (18 ppm), corn seeds
Botrytis sp = conditions: in vivo, Abamectin full label (18 ppm), corn seeds
Fusarium culmorum [3] = assay: Fungal growth on PDA agar, abamectin, 8 and 12 days (Example 13); format: cell-based
Description: (§1) The Colby equation (Colby, 1967. Weeds 15: 20-22) calculates the expected antifungal activity (E in %) of a combination comprising more than one active ingredients: E=X+Y−[(X·Y)/100] wherein X and Y are the observed antifungal activities (in %) of the individual active ingredients x and y, respectively. If the observed antifungal activity (O in %) of the combination exceeds the expected antifungal activity (E in %) of the combination and the synergy factor O/E is thus >1.0, the combined application of the active ingredients leads to a synergistic antifungal effect.
(§2) Agar medium was prepared by mixing in a 100 ml Duran bottle 3.9 g of potato dextrose agar (PDA) from Carl-Roth (Carl-Roth GmbH+Co. KG, Karlsruhe, Germany) with 100 ml deionized water and autoclaving the Duran bottle at 120° C. for 15 minutes. After autoclaving, the solution was cooled by putting it in a 48° C. oven for about two hours. […] The medium in the Duran bottle was divided over 5 petri dishes (90×15 mm), 20 ml per petri dish by using 25 ml serological pipets (ROTILABO®; Carl-Roth).
(§3) Fungal spore suspensions were prepared by drenching a fully grown petri dish with sterile water. The fungus was scraped off and filtered through a Miracloth (pore size: 22-25 μm) (Merck KGaA, Darmstadt, Germany; catalogue number: 475855). The number of spores were counted with a hemocytometer and fungal suspension was adjusted to 10^6 spores per ml. Afterward, 5 µl of prepared spore suspension was pipetted on the center of the agar plate. The plates were incubated at 25° C. Measurement of the fungal growth was done using calipers at different time points.
See Example 6. In this example the product […]® (Syngenta) containing the active ingredient abamectin belonging to IRAC Group 6 was used.
The insecticide concentration “N” (see below) that was used was 75 μl of insecticide product per 100 ml PDA agar. 0.5N is 37.5 μl of the product per 100 ml PDA agar.
The efficacy was assessed after 8 and 12 days of incubation in a stove at 25° C.

Fusarium culmorum [4] = assay: Fungal growth on PDA agar, abamectin, 7 days (Example 14); format: cell-based
Description: as §1, §2, §3
See Example 6. In this example the product […]® (Syngenta) containing the active ingredient abamectin belonging to IRAC Group 6 was used. The insecticide concentration “N” (see below) that was used was 75 μl of insecticide product per 100 ml PDA agar. 0.5N is 37.5 μl of the product per 100 ml PDA agar.
The efficacy was assessed after 7 days of incubation in a stove at 25° C.

[5] = abamectin 0.5N (37.5 μl VERTIMEC per 100 ml PDA), alone or + natamycin 1 ppm (1:6.75 w/w), after 8 days
[6] = abamectin 0.5N (37.5 μl VERTIMEC per 100 ml PDA), alone or + natamycin 1 ppm (1:6.75 w/w), after 12 days
[7] = abamectin 1N (75 μl VERTIMEC per 100 ml PDA), alone or + natamycin 1 ppm (1:13.5 w/w), after 8 days
[8] = abamectin 1N (75 μl VERTIMEC per 100 ml PDA), alone or + natamycin 1 ppm (1:13.5 w/w), after 12 days
[9] = abamectin 0.5N (37.5 μl VERTIMEC per 100 ml PDA), alone or + natamycin 1 ppm (1:6.75 w/w)
[10] = abamectin 1N (75 μl VERTIMEC per 100 ml PDA), alone or + natamycin 1 ppm (1:13.5 w/w)

## O=[N+]([O-])NC1=NCCN1Cc1ccc(Cl)nc1 [Imidacloprid, N-[1-[(6-chloropyridin-3-yl)methyl]-4,5-dihydroimidazol-2-yl]nitramide]
Fusarium culmorum [1]
  percentage of healthy seedlings: A (A represents the lowest rate of healthy seedlings)
Fusarium graminerum; after 8 days
  Area (fungal growth): 2779.54 mm2 and 4635.62 mm2
Fusarium graminerum; after 12 days
  Area (fungal growth): 4606.42 mm2 and 5273.80 mm2

## abamectin
Rhizoctonia
  healthy seedlings: A (A represents the lowest rate of healthy seedlings)
Fusarium culmorum [2]
  healthy seedlings: A (A represents the lowest rate of healthy seedlings)
Trichoderma hazarum
  healthy seedlings: A (A represents the lowest rate of healthy seedlings)
Aspergillus sp
  healthy seedlings: A (A represents the lowest rate of healthy seedlings)
Botrytis sp
  healthy seedlings: A (A represents the lowest rate of healthy seedlings)
Fusarium culmorum [3]; [5]
  Area (fungal growth): 2881.30 mm2
  O % observed antifungal activity: 11.71%
Fusarium culmorum [3]; [6]
  Area (fungal growth): 4282.74 mm2
  O % observed antifungal activity: 11.74%
Fusarium culmorum [3]; [7]
  Area (fungal growth): 2475.61 mm2
  O % observed antifungal activity: 24.14%
Fusarium culmorum [3]; [8]
  Area (fungal growth): 3944.95 mm2
  O % observed antifungal activity: 18.70%
Fusarium culmorum [4]; [9]
  Area (fungal growth): 764.44 mm2
  O % observed antifungal activity: 74.33%
Fusarium culmorum [4]; [10]
  Area (fungal growth): 453.27 mm2
  O % observed antifungal activity: 84.78%

Several values for one entry are separate records, joined by “and”; a condition that tells them apart may be missing. Equal entries are not always repeated. Where two headings read alike, the source gives them in different places.
